The source of these data is the RNAGym collection of RNA variant scans (doi:10.1073/pnas.2313332121).

Variants at the floor of the assay are shown more often than the library holds them. Some results are limits rather than exact numbers.

B1: TPR 5TU (parent)
chain: GGAUCUUCUCGAUCUAACAAAAAAGACAAAUCUGCCACAAAGCUUGAGAGCAUCUUCGGAUGCAGAGGCGGCAGCCUUCGGUGGCGCGAUAGCGCCAACGUUCUCAACUAUGACACGCAAAACGCGUGCUCCGUUGAAUGGAGUUUAUCAUG

This data set covers variants of B1. The data set can be described thus: polymerase ribozyme fitness, log enrichment relative to wild type (log ratio); higher = more active; in vitro selection for triplet polymerase activity. The method in brief: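 Mutant libraries of each subunit of a heterodimeric triplet polymerase ribozyme were built by PCR and transcribed. Each library went through one round of in vitro selection in triplicate: annealing with biotinylated primer, partner subunit and triplets, frozen incubation at −7 °C, gel excision of extended constructs, streptavidin-bead capture and RT-PCR. Input and output libraries were Illumina-sequenced; only genotypes with ≥10 input reads and ≥1 read per output were kept. Fitness is log2(genotype enrichment/wild-type enrichment), using inverse-variance-weighted replicate averages.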
For GGAUCUUCUCGAUCUAACAAAAAAGACAAAUCUGCCACAGAGCUUGAGAGCAUCUUCGGAUGCAGAGGCGGCAGCGUUCGGUGGCGCGAUAGCGCCAACGUUGUCAACUAUGACACGCAAAACGCUUGCUCCGUUGAAUGGAGUUUAUCAUG, the “polymerase ribozyme fitness (log ratio)” value is at most -4.2. As for GGAUCUUCUCGAUCUAACAAAAAAGACAAAUCUGCCACAGAGCUUGAGAGCAUCUUCGGAUGCAGAGGCGGCAGCCUUAGGUGGCGCGAUAGAGCCAACGUUCUCAACUAUGACACGCAAAACACGUGCUCCGUUGAAUGGAGUUUAUCAUG, the figure is at most -4.2.

Take GGAUCUUCUCGAUCUAACAAAAAAGACAAAUCUGCCACAGACCUUGAGAGCAUCUUCGGAUGGAGAGGCGGAAGCCUUCGGUGGCGCGAUAGCGCCAACGUUCUCAACUAUGACACGCAAAACGAGUGCUCCGUUGAAUGGAGUUUAUCAUG: the “polymerase ribozyme fitness (log ratio)” value is at most -4.2.

Turning to GGAUCUUCUCGAUCUAACAAAAAAGACAAAUCUGCCACAGAGCUUGAGAGCAUCUUCGGAUGCAGAGGCGGCAGCCUUUGGUGGGGCGAUAGCGCCAACGUUUUCAACUAUGACACGCAAAUCGCGUGCUCCGUUGAAUGGAGUUUAUCAUG, the “polymerase ribozyme fitness (log ratio)” value is at most -4.2. Next, GGAUCUUCUCGAUCUAACAAAAAAGACAAAUCUGCCACAGAGCUUGAGAGCAUCUUCGGAUGCAGAGGCGGCAGGCUUCGGUGGCGCGAUAGCGCCGACGUUCUCAACUAUGACACGCAAAACGCGUGCUCCGUUGAAUGGAGUUUAUCAUG: at most -4.2. In the case of GGAUCUUCUCGAUCUAACAAAAAAGACAAAUCUGCCACAGAGCUUGAGAGCAUCUUCGGAUGCAGAGGCGGCAGCCUUCGGUGGCGCGAUAGCGCCAACGUUCUCAACUCUGACACGCAAAACGCGUGCUCCGUUGAAUGGAGUUUAUCAUG, the “polymerase ribozyme fitness (log ratio)” value is at most -4.2. Regarding GGAUCUUCUCGAUCUAACAAAAAAGACAAAUCUGCCACAGAGCUUGAGAGCAUCUUAGGAUGCAGAGGCGGCAGCCUUCGGUGGCGAGAUAGCGACAACGUUCUCAACUAUGACAAGCAAAACGCGUUCAGCGUUGAAUGGAGUUUAUCAUG, the “polymerase ribozyme fitness (log ratio)” value was at most -4.2. For GGAUCUUCUCGAUCUAACAAAAAAGACAAAUCUGCCACAGAGCUUGAGAGCAUCUUCGGAUGCAGAGGCGGCAGCCUUCGGUGGCGCGAUAGCGCCAACGUUCUCAACUAUGACACGUAAAACGCGUGCUCCGUUGAAUGGAGUUUAUCAUG, the “polymerase ribozyme fitness (log ratio)” value was -2.18. Consider GGAUCUUCUCGAUCUAACAAAAAAGACAAAUCUGCCACAGAGCUUGAGAGCUUCUUCGGAUGCAGAGACGGCAACCUUAGGUGGCGCGAUAGCGCCAACGUUCUCAACUAUGACACGCAAAACGUGUGCUCCGUACAAUGGAGUUUAUCAUG, for which the “polymerase ribozyme fitness (log ratio)” value was at most -4.2. Take GGAUCUUCUCGAUCUAACAAAAAAGACAAAUCUGCCACAGAGCUUGAGAGCAUCUUCCGAUGCAGAGGCGGCAGCCUUCGGUGGCGCGAUAGCGCCAACGUGCUCAACUAUGACACGCAAAACGCGUGCUCCGUUAAAUGGAGUUUAUCAUG: the “polymerase ribozyme fitness (log ratio)” value is at most -4.2. As for GGAUCUUCUCGAUCUAACAAAAAAGACAAAUCUGCCACAGAGCUUGAGAGCAUCUUCGGAUGCAGAGGCGGCAGCCUUCGGUGGAGCGAUAGCGCCAACGUUCUCAACUGUGACACGCAAAACGCGUGCUCCGUUGAAUGGAGUUUAUCAUG, the figure is at most -4.2. For the variant GGAUCUUCUCGAUCUAACAAAAAAGACAAAUCUGCCACAGAGCUUGAGACCAUCUUCGGAUGCAGACGCGGCAGCCGUCGGUGGCGCGAUAGCGUCAACGCUCUCAACGCUGACACGCAAAACGCGUGCUCCGUUGAAUGGAGUUUAUCAUG, the “polymerase ribozyme fitness (log ratio)” value was at most -4.2.

Regarding GGAUCUUCUCGAUCUAACAAAAAAGACAAAUCUGCCACAGACCUUGAGAGCAUCUGCGGAUGCAGAGGCGGCAGCCUUCGGUGGCGCCAUAGCGCCAACGUUCUCUACUAUGACACGCAAAACUCGUGCUCCUUUGAAAGGUGUUUAUCAUG, the “polymerase ribozyme fitness (log ratio)” value is at most -4.2. GGAUCUUCUCGAUCUAACAAAAAAGACAAAUCUGCCACAGACCUUGAGAGCAUCUUUGAAUGCAGAGGCGGCAGCCUUCGGUGGCGCGAUAGGGCCAACGUUCUCAACUAUGACACGCAAAACGCGUGCUCCGUUGAAUGGAGUUUAUCAUG: the “polymerase ribozyme fitness (log ratio)” value was at most -4.2.

In the case of GGAUCUUCUCGAUCUAACAAAAAAGACAAAUCUGCCACAGAGCUUGAGAGCAUCUUCGGAUGCAGCGGCGGCAGCCUUCGGUGGCGCAAUAGCGCCAACGUUCUCAACUAUGACACGCAAAACGCGUGCUCCGUUGAAUGGAGUUUAUCAUG, the “polymerase ribozyme fitness (log ratio)” value is at most -4.2. As for GGAUCUUCUCGAUCUAACAAAAAAGACAAAUCUGCCACAGAGCUUGAGAGCAUCUUCGGAUGCAGAGGCGGCUGCCUUCGGUGGCGAGAUAGCGCCAACGUUCUCAACUAUGACACGCAAAACGCGUGCGCCGUUGAAUGGAGUUUAUCAUG, the figure is at most -4.2; as for GGAUCUUCUCGAUCUAACAAAAAAGACAAAUCUGCCACAGAGCUUGAGAGCAUCUUCGGAUGCAGAGGCGGCAGCCUUGGGUGGCGCGAUAGCGCCAACGUUCUCAACUAUGACACGCAAAACGCGUGCUCCGUUGAAUGGAGUAUAUCAUG, at most -4.2; as for GGAUCUUCUCGAUCUAACAAAAAAGACAAAUCUGCCACAGAGCUUGAGAGGAUCUUUGGAUGCAGAGGCGGCAGCCUUCGGUGGCGCGAUAGCGCAAACGUUCUCAACUAUACCACGCAAAACGCGUGCUCCGUUAAAUGGAGUUUAUCAUG, at most -4.2. Next, GGAUCUUCUCGAUCUAACAAAAAAGACAAAUCUGCCACAGAGCUUGAGAGCAUCUUCGGAUGCAGAGGCGGCAGCCUUCGGUGGCGCGAUAGCGCCAACGUUCUCAAGUAUGACACGCAAAACGCGUGCUCCGUUGAAUGCAGUUUAACAUG: at most -4.2.
